Experimental data reported in patent US6180103A, “Peptide p277 analogs, and pharmaceutical compositions comprising them for treatment or diagnosis of diabetes” (Yeda Research and Development Co., Ltd., priority 1994, dated 2001).
At least one peptide structure holds a part that was inferred or is arguable (an end, a ring closure or a residue). Ends that are not written are not given here. Peptide text beside a SMILES is read from it.

Key:
[1] = system: NOD mice; assay: Treatment of NOD mice with p277 or its fragments; settings: female NOD mice, 50 μg peptide in oil s.c. at 7 weeks of age; for effect on development of disease (in words): status at 40 weeks
[2] = system: NOD spleen T cells; assay: T-cell proliferation assay with NOD spleen cells; assay type: cell-based, mouse
[3] = system: NOD female mice; assay: Treatment of NOD female mice reverses insulitis (histologic examination of islets); assay type: in vivo; settings: 100 μg/mouse in IFA s.c. at 12 weeks, histology (22 weeks)
[4] = system: diabetogenic NOD T-cell clone C9; assay: T-cell proliferation assay with clone C9; assay type: cell-based, mouse; settings: [3H]-thymidine incorporation, 72 hr
[5] = system: NOD mice; settings: p277 administered at the onset of insulitis (Elias et al., 1991); cited from earlier work
[6] = system: female NOD mice; assay: Treatment of NOD female mice with p277 or p277(Lys19); settings: 100 μg peptide in IFA s.c. at 3 months, scored at 6 months of age
[7] = system: NOD mice; assay: Treatment of NOD mice with p277 substitution peptides; assay type: in vivo, mouse; settings: NOD females, 100 μg peptide in IFA s.c. at 12 weeks of age; for Incidence of diabetes: incidence at 30 weeks
[8] = system: T cell clone C9; assay: Stability of stored peptide, read out as ability to stimulate T cell clone C9; assay type: cell-based, mouse; settings: for stability: ability to stimulate T cell clone C9 after storage: dry powder at -20° C.

Compound | Status at 40 Weeks: Diabetes, Hyperglycemic [1] | Status at 40 Weeks: Healthy [1] | effect on development of disease (in words) [1] | proliferation response of T-cell clone C9 [4] | Incidence of diabetes [7] | also measured
PALDSLTPANED [p277.C] | 70% | 30% | about half as well as did the intact p277 |  |  | 
CC[C@H](C)[C@H](NC(=O)[C@H](CS)NC(=O)[C@H](CCCNC(=N)N)NC(=O)[C@H](CC(C)C)NC(=O)[C@H](CC(C)C)NC(=O)[C@H](C)NC(=O)[C@H](CS)NC(=O)CNC(=O)CNC(=O)CNC(=O)[C@H](CC(C)C)NC(=O)[C@@H](N)C(C)C)C(=O)O [p277.N] (H-VLGGGCALLRCI-OH) | 80% | 20% | about half as well as did the intact p277 |  |  | 
NEDQKIGIEIIKRTLKI [p278, Asn-Glu-Asp-Gln-Lys-Ile-Gly-Ile-Glu-Ile-Ile-Lys-Arg-Thr-Leu-Lys-Ile, reference compound] | 100% | 0% | no effect on development of disease |  |  | proliferation of NOD spleen T cells ([2]; spleens of female NOD mice, [3H]-thymidine incorporation): no response
CC[C@H](C)[C@H](NC(=O)[C@H](CS)NC(=O)[C@H](CCCNC(=N)N)NC(=O)[C@H](CC(C)C)NC(=O)[C@H](CC(C)C)NC(=O)[C@H](C)NC(=O)[C@H](CS)NC(=O)CNC(=O)CNC(=O)CNC(=O)[C@H](CC(C)C)NC(=O)[C@@H](N)C(C)C)C(=O)N1CCC[C@H]1C(=O)N[C@@H](C)C(=O)N[C@@H](CC(C)C)C(=O)N[C@@H](CC(=O)O)C(=O)N[C@@H](CO)C(=O)N[C@@H](CC(C)C)C(=O)N[C@H](C(=O)N1CCC[C@H]1C(=O)N[C@@H](C)C(=O)N[C@@H](CC(N)=O)C(=O)N[C@@H](CCC(=O)O)C(=O)N[C@@H](CC(=O)O)C(=O)O)[C@@H](C)O [p277] (H-VLGGGCALLRCIPALDSLTPANED-OH) | 40% | 60% |  | positive proliferation response | 22% | Histologic Examination: Insulitis intra-islet [3]: 6%; Histologic Examination: Insulitis peri-islet [3]: 69%; Histologic Examination: clear islets [3]: 25%; development of diabetes [5]: prevent the development of diabetes; spontaneous T-cell proliferative response of spleen T cells ([2]; age and sex matched mice of other strains (not shown)): did not manifest a spontaneous T-cell proliferative response; Diabetes at 6 months: Hyperglycemia [6]: 40%; stability: ability to stimulate T cell clone C9 after storage ([8]; 9 weeks after synthesis): lost most of its effect; stability: ability to stimulate T cell clone C9 after storage ([8]; 20 weeks after synthesis): all of it; stability of the peptide (general statement) ([8]; lyophilized powder in vacuum, -20° C.): unstable and deteriorates even under strict conditions
VLGGGSALLRSIPALDSLTPANED [p277(Ser^6 -Ser^11)] |  |  |  | not immunologically cross-reactive | 85% | therapeutic effect in treatment of diabetes (in words) [7]: not effective therapeutically
CC[C@H](C)[C@H](NC(=O)[C@H](CS)NC(=O)[C@H](CCCNC(=N)N)NC(=O)[C@H](CC(C)C)NC(=O)[C@H](CC(C)C)NC(=O)[C@H](C)NC(=O)[C@H](CS)NC(=O)CNC(=O)CNC(=O)CNC(=O)[C@H](CC(C)C)NC(=O)[C@@H](N)C(C)C)C(=O)N1CCC[C@H]1C(=O)N[C@@H](C)C(=O)N[C@@H](CC(C)C)C(=O)N[C@@H](CC(=O)O)C(=O)N[C@@H](CO)C(=O)N[C@@H](CC(C)C)C(=O)N[C@@H](CCCCN)C(=O)N1CCC[C@H]1C(=O)N[C@@H](C)C(=O)N[C@@H](CC(N)=O)C(=O)N[C@@H](CCC(=O)O)C(=O)N[C@@H](CC(=O)O)C(=O)O [p277(Lys^19)] (H-VLGGGCALLRCIPALDSLKPANED-OH) |  |  |  |  |  | Diabetes at 6 months: Hyperglycemia [6]: 50%
CC[C@H](C)[C@H](NC(=O)[C@@H]1CSSC[C@H](NC(=O)CNC(=O)CNC(=O)CNC(=O)[C@H](CC(C)C)NC(=O)[C@@H](N)C(C)C)C(=O)N[C@@H](C)C(=O)N[C@@H](CC(C)C)C(=O)N[C@@H](CC(C)C)C(=O)N[C@@H](CCCNC(=N)N)C(=O)N1)C(=O)N1CCC[C@H]1C(=O)N[C@@H](C)C(=O)N[C@@H](CC(C)C)C(=O)N[C@@H](CC(=O)O)C(=O)N[C@@H](CO)C(=O)N[C@@H](CC(C)C)C(=O)N[C@H](C(=O)N1CCC[C@H]1C(=O)N[C@@H](C)C(=O)N[C@@H](CC(N)=O)C(=O)N[C@@H](CCC(=O)O)C(=O)N[C@@H](CC(=O)O)C(=O)O)[C@@H](C)O [p277(bridged Cys--Cys)] (HELM PEPTIDE1{V.L.G.G.G.C.A.L.L.R.C.I.P.A.L.D.S.L.T.P.A.N.E.D}$PEPTIDE1,PEPTIDE1,6:R3-11:R3$$$V2.0) |  |  |  | not immunologically cross-reactive | 70% | therapeutic effect in treatment of diabetes (in words) [7]: not effective therapeutically
